This is one part of the list.

Sequences and labels used below:
B1: chr2:89268000:89268296:-|CDS|ENSG00000242076|control|control|control (ssRNA)
RNA: GGGAGUUCUACAGUCCGACGAUCUCCCUGUCUGCAUCUGUAGGAGACAGAGUCACCAUCACUUGCCAGGCGAGUCAGGACAUUAGCAACUAUUUAAAUUGGUAUCAGCAGAAACCAGGGAAAGCCCCUAAGCUCCUGAUCUACCAACAGAGGAUUGAGCAUCA
B2: chr10:58277235:58277315:+|CDS|ENSG00000122873|msi1_unk|FALSE|overlapping (ssRNA)
RNA: GGGAGUUCUACAGUCCGACGAUCUAAAGAUCAUCGAAAUAAAGCUAUGAUAAACCUUCACAUCCAGAAAGACAACCCCAAGAUAGUACAUGCUUUUGACAUGGAGGAUUUGGGAGAUAAAGCUGUGUACUGCCGUUGUUGGAGCAACAGAGGAUUGAGCAUCA
B3: chr8:37861146:37861251:-|3pUTR|ENSG00000156675|unk|FALSE|unique (ssRNA)
RNA: GGGAGUUCUACAGUCCGACGAUCCUGUGCAGAGCAAGAAGAUGAUACUUAUUUUUGAAUUUGUAUUUUUAAAACUAGAUUUAUAGACUUUUUUUUUUUUUAACUAGGGCACUUGCUUCCUUCUUAGCUAAAAGCACCAGCUGACAACAGAGGAUUGAGCAUCA
B4: chr1:180885099:180885158:+|3pUTR|ENSG00000143324|msi1_unk|FALSE|overlapping (ssRNA)
RNA: GGGAGUUCUACAGUCCGACGAUCAGCUGAAGCUAUGCCUUAUUAUGCAUCCACAUGUAUGGUCCCUGUAGCGUGACCUUUACUAGCUCUGAAUCAGAAGACAGAGCUAUUUCAGAGGCUCUGUGUGCCCUCACUAGAUAGUUUCAACAGAGGAUUGAGCAUCA
B5: chr22:30522798:30525066:-|three_prime_utr|ENSG00000214491|control|control|control (ssRNA)
RNA: GGGAGUUCUACAGUCCGACGAUCGCUACACCGUGGAGGUACUGCUCCCAGACCAAACCUUCAUGGAGAAGAUGGAGAAAUUCUAGGUGAACCUCAUGGUCCCCACACCCUCCUCUUUGAUCUCUGAAUCCACAAUGAGUUCACCAACAGAGGAUUGAGCAUCA
B6: ENSG00000124766:be:win_1901|3pUTR|ENSG00000124766|bound_else_gene|NA|bound_elsewhere_windowed (ssRNA)
RNA: GGGAGUUCUACAGUCCGACGAUCUUAUUUUGCUUCUUGGUCAAGAAAGGAGGGGAGAACCCAGCGCACCCCUCCCCCCCUUUUUUUAAACGCGUGAUGAAGACAGAAGGCUCCGGGGUGACGAAUUUGGCCGAUGGCAGAUGUCAACAGAGGAUUGAGCAUCA
B7: chr11:46542767:46542868:-|CDS|ENSG00000110497|msi1|FALSE|unique (ssRNA)
RNA: GGGAGUUCUACAGUCCGACGAUCAACACGCUCCGCAACCUCAGUCUGGGUCCUACCCGCCGCUCUUUGGGAGGGCCUCUGUCUAGCCACCCUUCUAGGUAUCACCGAGAAAUAGCUCCUGGGUUGACAGGAUCUGAGUGGACCCAACAGAGGAUUGAGCAUCA
B8: chrX:130230552:130230660:-|CDS|ENSG00000056277|unk|FALSE|unique (ssRNA)
RNA: GGGAGUUCUACAGUCCGACGAUCAUCAGAACGUCCAUGUGAUGAAGACAAGACUGAUUCAGAGACAGGAAAGUUGAUCAUGUUAGUCAAUGAGUUUUAUUAUGGAAGGCAUGAAGGAGUCACUGAGAAAGAGCCAAAGACUUACAACAGAGGAUUGAGCAUCA
B9: ENSG00000136451:be:win_701|CDS|ENSG00000136451|bound_else_gene|NA|bound_elsewhere_windowed (ssRNA)
RNA: GGGAGUUCUACAGUCCGACGAUCGCAGUGUUUGUGGGAAAGGCUUCUCAAGGCCUGACCACUUAAGCUGUCAUGUAAAACAUGUCCAUUCAACAGAAAGACCCUUCAAAUGCCAAACGUGCACUGCUGCCUUUGCCACCAAAGCAACAGAGGAUUGAGCAUCA
B10: chr2:27133116:27133337:-|CDS|ENSG00000138073|control|control|control (ssRNA)
RNA: GGGAGUUCUACAGUCCGACGAUCACCCAGCACGAGGGGCUAGAACUCAGGGUAGAGAAUUUGCAGGCGGUGCAGACAGACUUUAGCUCCGAUCCACUGCAGAAAGUUGUGUGCUUCAACCACGAUAAUACCCUGCUUGCCACUCAACAGAGGAUUGAGCAUCA
B11: ENSG00000109099:stop:overlap|stop_codon|ENSG00000109099|stop_codon|NA|stop_codon (ssRNA)
RNA: GGGAGUUCUACAGUCCGACGAUCCAUUAGAUAAGUCAGACAGAGCCCAAGAGACAACUUCAGUAUUUCUUAAAGACAAGAGUUAGCACUUUGGAGAUGCAAGCCGUGGAAGAGUGGGGCAAGAUAAUUAAGGAUCCUGGACCUCAACAGAGGAUUGAGCAUCA
B12: chr4:123402332:123402450:+|CDS|ENSG00000164056|unk|total|mutant (ssRNA)
RNA: GGGAGUUCUACAGUCCGACGAUCGACGAAGGGGAUUCCUAUUCAGAUAAUCCUUGCUCCUGUUCACAAUCACACUGCUGCUCCCGAUACCUGUGUAUGGGAGCCAUGUCUUUAUUUUUACCUUGCUUACUCUGUUAUCCUCCUCAACAGAGGAUUGAGCAUCA
B13: ENSG00000198589:be:win_7201|CDS|ENSG00000198589|bound_else_gene|NA|bound_elsewhere_windowed (ssRNA)
RNA: GGGAGUUCUACAGUCCGACGAUCGAGAGUGAAUUUGUUUCCUGCCAGCUUCACCAAUGGAUUGAUCUCAUUUUUGGCUAUAAACAGCAAGGACCAGAAGCUGUCCGAGCCCUCAAUGUGUUCUAUUACUUGACCUAUGAAGGACAACAGAGGAUUGAGCAUCA
B14: chr17:80295660:80295761:+|CDS|ENSG00000173821|msi1|FALSE|bound_elsewhere (ssRNA)
RNA: GGGAGUUCUACAGUCCGACGAUCGAGUAAACUGAAAACAGGCCUGAUUGUCCUUUUUGUAGUGGAAAAAAUUGAGCUUUUAUUAGAAGGCAGCCUGGACUGGUUGUGUCACCUCCUAACCUCAGAUGCCAGCUCACCAGAUGACAACAGAGGAUUGAGCAUCA

This assay concerns the target MSI1 full-length (mouse, UniProt Q61474 1-362). Put plainly: nsRBNS (natural sequence RNA bind-n-seq); RBNS binding buffer (assumed for nsRBNS): 25 mM Tris pH 7.5, 150 mM KCl, 3 mM MgCl2, 0.01% Triton X-100, 500 ug/ml BSA, 20 U/ml SUPERase-In, 4 C; UNK is unkempt and MSI1 is Musashi-1; names of the RNAs are library labels; protein concentration not given here; high values mean tight binding.
Sequence of UniProt Q61474 (Q61474 whole entry): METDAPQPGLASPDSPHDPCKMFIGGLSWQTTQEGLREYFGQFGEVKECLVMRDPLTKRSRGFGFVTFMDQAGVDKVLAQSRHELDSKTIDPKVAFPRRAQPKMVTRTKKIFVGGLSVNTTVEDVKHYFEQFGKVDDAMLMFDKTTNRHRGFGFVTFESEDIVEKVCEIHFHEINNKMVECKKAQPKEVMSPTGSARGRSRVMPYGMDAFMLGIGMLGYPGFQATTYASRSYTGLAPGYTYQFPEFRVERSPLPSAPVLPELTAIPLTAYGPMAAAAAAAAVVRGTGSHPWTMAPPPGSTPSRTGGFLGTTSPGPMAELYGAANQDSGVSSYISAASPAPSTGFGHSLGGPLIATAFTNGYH
As to B1, the binding signal was 0.824 enrichment R.

In turn, B2 came in with a binding signal of 0.395 enrichment R.

On to B3, for which the binding signal came out at 12.9 enrichment R.

Take B4: the binding signal came out at 5.41 enrichment R.

As for B5, the binding signal was 0.567 enrichment R.

In turn, B6 yielded a binding signal of 0.422 enrichment R.

Molecule B7 returned a binding signal of 0.657 enrichment R.

In the case of B8, the binding signal is 0.666 enrichment R.

Regarding B9, the binding signal came to 0.287 enrichment R.

In turn, B10 had a binding signal of 0.445 enrichment R.

B11 returned a binding signal of 0.296 enrichment R.

As to B12, the binding signal was found to be 0.558 enrichment R.

B13 gave a binding signal of 0.364 enrichment R.

On to B14, for which the binding signal was 1.08 enrichment R.
